Consider 27 molecules from PubChem BioAssay AID1508642 (National Center for Advancing Translational Sciences (NCATS), 2021).

SMILES strings stand for the structures. Among all 43,000 compounds or so, about 200 (0.47%) were called active. About 12% were inconclusive and are not listed. The call rests on the fitted dose curve; in most records, active means well fitted cell-killing curve with a large enough effect; inconclusive means small, poorly fitted or top-dose-only effect, or effect the other way; inactive means flat fitted curve, though single readings scatter. The list shows a part of the results.
On the % scale 0 is the no-effect control and ±100 the full control effect.

The nature of this assay: Cell viability qHTS assay in S16 Pmp22-F2sN cells. Further: nearly all actives have a fitted effect of over 65% in size. Conditions: S16 Pmp22-F2sN Schwann cells (luciferase reporters placed in the Pmp22 gene) viability, CellTiter-Glo, 24 h; series mostly up to 57.5 µM; activity change, negative = cytotoxicity: at the top concentration. The essentials: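 CellTiter-Glo counter-screen, qHTS, 1536-well. Cells: S16(c9) Pmp22-F2sN, 500-1,000/well in DMEM + 10% FBS. Cpd 23 nL pin transfer, 24 h, 37C/5% CO2. Read: luminescence, CCD imager.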
In general terms: Quantitative high-throughput screening tests each substance at several concentrations.
In the case of `Cc1noc(-c2ccc(N3CCCCC3)c([N+](=O)[O-])c2)n1`, the “activity change, negative = cytotoxicity” value is inactive: -21.6%.

For the molecule `Cc1ccccc1CCNC(=O)c1ccc2c(c1)nc1n2CCC(C)C1` (configuration not stated), the “activity change, negative = cytotoxicity” value was inactive: 22.2%. The value for `Cc1ccc(Cn2c(CNS(=O)(=O)c3ccc(F)c(Cl)c3)nc3cccnc32)cc1` was inactive: -28.4%; that for `COc1ccc(-n2ncc(C(=O)NCCc3ccsc3)c2C2CCN(C(=O)OC(C)(C)C)CC2)cc1` was inactive: -20.7%. Take `COc1cc(C2C(C(=O)Nc3ccccc3C)=C(C)Nc3ncnn32)ccc1OCC(N)=O` (configuration not stated): the “activity change, negative = cytotoxicity” value was inactive: 6.89%.

Turning to `O=C(NCC(c1ccc2c(c1)OCO2)N1CCOCC1)c1cccc(Cl)c1` (configuration not stated), the “activity change, negative = cytotoxicity” value was inactive: -9.3%.

Regarding `CCOc1ccccc1NC(=O)C1CCN(S(=O)(=O)c2ccc3c(c2)CC(C)N3C(C)=O)CC1` (configuration not stated), the “activity change, negative = cytotoxicity” value is inactive: -17%. Consider `COc1ccc2c(C)cc(SCC(=O)Nc3nsc(-c4ccccc4C)n3)nc2c1`, for which the “activity change, negative = cytotoxicity” value was inactive: 3.15%.

In the case of `CCOC(=O)c1ccccc1NC(=O)Cn1c(=O)n(-c2cccc(C)c2)c(=O)c2c1c1cc(C)ccc1n2C`, the “activity change, negative = cytotoxicity” value was inactive: 0.401%. The value for `CCOc1ccc(Cn2c(CNS(=O)(=O)c3ccc(Cl)s3)nc3cccnc32)cc1` was inactive: 0.893%; that for `COc1cccc(N2CCN(S(=O)(=O)c3ccc(-n4cnnn4)cc3)CC2)c1` was inactive: -1.04%.

Turning to `O=C(NCc1ccc(Cl)cc1)C(=O)NCC(c1cccs1)S(=O)(=O)c1cccs1` (configuration not stated), the “activity change, negative = cytotoxicity” value is inactive: 15%.

`O=C(Nc1cc(C(F)(F)F)ccc1Cl)c1nc2ccccc2nc1N1CCCCC1`: the “activity change, negative = cytotoxicity” value was inactive: -0.792%. To `COC(=O)c1cccnc1-n1c(=O)c2cccnc2n(CC(=O)Nc2ccccc2F)c1=O` belongs inactive: -6.62%.

Turning to `CCc1ccccc1NC(=O)c1sc2nc3c(cc2c1N)CN(Cc1ccccc1)CC3`, the “activity change, negative = cytotoxicity” value was inactive: -26.4%.

For the molecule `CCOC(=O)c1c(C)oc2nc(C)nc(NCc3ccc(OC)cc3OC)c12`, the “activity change, negative = cytotoxicity” value was inactive: 4.43%. In the case of `O=C(CSc1nncn2c1cc1sccc12)Nc1ccc(Br)cc1F`, the “activity change, negative = cytotoxicity” value was inactive: 0.28%. To `Cc1cc(C)cc(NC(=O)C(=O)NCC(c2cccnc2)N2CCc3ccccc3C2)c1` (configuration not stated) belongs inactive: 0.637%; to `Clc1cccc(-n2ncc3c(N4CCC(Cc5ccccc5)CC4)ncnc32)c1`, inactive: -2.07%. In the case of `CCCCNC(=O)C1CCC(Cn2c(=O)c3sccc3n(CC(=O)N3CCCC3)c2=O)CC1` (configuration not stated), the “activity change, negative = cytotoxicity” value is inactive: 5.41%. Take `CCc1ccc(NC(=O)CCn2nc(C)c(S(=O)(=O)N3CCCCC3)c2C)cc1`: the “activity change, negative = cytotoxicity” value is inactive: -2.33%. To `O=C(NCCc1ccccc1)c1sc2ncccc2c1-n1cccc1` belongs inactive: -19.6%; to `CCCc1cnc2c(c1SCC(=O)N1CCC(C)CC1)c(=O)n(C)c(=O)n2C`, inactive: -14%; to `CCC1CCCCN1C(=O)Cn1c(=O)oc2cc(S(=O)(=O)N3CCCCC3)ccc21` (configuration not stated), inactive: -7.89%. With `NC(=O)CSc1oc(-c2ccco2)nc1S(=O)(=O)c1ccc(Cl)cc1`, the “activity change, negative = cytotoxicity” value is inactive: -2.24%. For the molecule `Cc1ccc(NC(=O)c2cc3cc(C)ccc3n2C)cc1`, the “activity change, negative = cytotoxicity” value is inactive: 2.88%. The value for `CCOC(=O)c1ccc(NC(=O)Cn2c(=O)cc(C)c3c(C)nn(-c4cccc(F)c4)c32)cc1` was inactive: -0.997%.
